{"source": "the supplement of paper PMC3724861", "note": "Some of the results follow.", "data": [{"system": "T1, Caupolican (Caup) homeodomain DNA-binding domain", "T1 sequence": "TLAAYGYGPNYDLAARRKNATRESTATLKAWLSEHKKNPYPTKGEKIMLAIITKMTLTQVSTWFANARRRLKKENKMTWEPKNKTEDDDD", "assay": "PBM E-score (8-mer, recovered from the published 9-mer minima) (E-score (dimensionless, -0.5 to 0.5)); Drosophila protein; higher = stronger relative binding preference, active = 0.31 or more", "summary_of_the_method": "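Caup's homeodomain DNA-binding domain (residues 214-303) was made by in vitro transcription and translation and applied at 100 nM to custom-designed protein binding microarrays. Each value is an enrichment score that gives relative binding preference for a short DNA word, with higher meaning stronger. The 8-mer values were recovered from published 9-mer scores, each of which was the minimum of its two constituent 8-mer scores. A cutoff of 0.31 marks candidate sites.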", "values": [{"sequence": "GATAGCAA", "PBM E-score": "inactive: 0.121"}, {"sequence": "AGGACAAT", "PBM E-score": "inactive: 0.0918"}, {"sequence": "ACACAGAG", "PBM E-score": "inactive: 0.129"}, {"sequence": "CCGTTATA", "PBM E-score": "inactive: 0.016"}, {"sequence": "AAAAACGG", "PBM E-score": "inactive: -0.0275"}, {"sequence": "CCAATTAA", "PBM E-score": "inactive: 0.121"}, {"sequence": "AGTGTTAA", "PBM E-score": "inactive: 0.165"}, {"sequence": "ACTAACAG", "PBM E-score": "inactive: 0.174"}, {"sequence": "AACTCCGA", "PBM E-score": "inactive: -0.058"}, {"sequence": "GAGTCAGA", "PBM E-score": "inactive: -0.0516"}, {"sequence": "CTGTAGAA", "PBM E-score": "inactive: 0.13"}, {"sequence": "AGAGGAAA", "PBM E-score": "inactive: -0.0315"}, {"sequence": "AATCTCTG", "PBM E-score": "inactive: 0.0615"}, {"sequence": "CCGGCTGC", "PBM E-score": "inactive: -0.162"}, {"sequence": "CAATAAAA", "PBM E-score": "inactive: 0.142"}, {"sequence": "AAAAGGCC", "PBM E-score": "inactive: -0.193"}, {"sequence": "AGAGAGAA", "PBM E-score": "inactive: -0.0245"}, {"sequence": "CTGATGGA", "PBM E-score": "inactive: -0.0825"}, {"sequence": "ACGCCTTG", "PBM E-score": "inactive: -0.0368"}, {"sequence": "AGTCTGAA", "PBM E-score": "inactive: 0.0498"}, {"sequence": "ACTCAGAC", "PBM E-score": "inactive: 0.029"}, {"sequence": "AGTACGGA", "PBM E-score": "inactive: -0.0156"}, {"sequence": "ACAGCCCG", "PBM E-score": "inactive: -0.16"}, {"sequence": "AAAACAGT", "PBM E-score": "inactive: 0.11"}, {"sequence": "ATAGTCTC", "PBM E-score": "inactive: 0.074"}, {"sequence": "AAAGCTTT", "PBM E-score": "inactive: 0.0082"}, {"sequence": "CGGGGTAG", "PBM E-score": "inactive: -0.138"}, {"sequence": "AATTATTC", "PBM E-score": "inactive: 0.16"}, {"sequence": "GCAGATTA", "PBM E-score": "inactive: 0.0156"}, {"sequence": "CAGTGCCG", "PBM E-score": "inactive: -0.179"}, {"sequence": "AAATCGCA", "PBM E-score": "inactive: -0.0788"}, {"sequence": "AGAAATTC", "PBM E-score": "inactive: -0.0621"}, {"sequence": "ACCACCAC", "PBM E-score": "inactive: 0.0458"}, {"sequence": "AGCTAAGG", "PBM E-score": "inactive: -0.086"}, {"sequence": "CGGTTTCA", "PBM E-score": "inactive: 0.0244"}, {"sequence": "CGCTGCCC", "PBM E-score": "inactive: -0.255"}, {"sequence": "CCTTGTGA", "PBM E-score": "inactive: 0.0778"}, {"sequence": "CACAACGA", "PBM E-score": "inactive: 0.0624"}, {"sequence": "CAAGGTGG", "PBM E-score": "inactive: -0.0224"}, {"sequence": "CACGTATC", "PBM E-score": "inactive: 0.152"}, {"sequence": "CAGGGTCA", "PBM E-score": "inactive: -0.122"}, {"sequence": "ATGGAGGA", "PBM E-score": "inactive: -0.0214"}, {"sequence": "GAGGCCTA", "PBM E-score": "inactive: -0.236"}, {"sequence": "CTGAGCGA", "PBM E-score": "inactive: -0.0733"}, {"sequence": "AGGGCGCA", "PBM E-score": "inactive: -0.236"}, {"sequence": "GGTAAAAC", "PBM E-score": "inactive: 0.108"}, {"sequence": "ACAATCCG", "PBM E-score": "inactive: 0.117"}, {"sequence": "CTAGCAAG", "PBM E-score": "inactive: 0.0447"}, {"sequence": "GGAGAACA", "PBM E-score": "inactive: 0.13"}, {"sequence": "CAAACCTG", "PBM E-score": "inactive: 0.0411"}, {"sequence": "AAATCCAA", "PBM E-score": "inactive: 0.0536"}, {"sequence": "ATAACTGG", "PBM E-score": "inactive: -0.0609"}, {"sequence": "GAAGGAGA", "PBM E-score": "inactive: 0.00976"}, {"sequence": "CAGAGAGA", "PBM E-score": "inactive: -0.014"}, {"sequence": "TAACGACA", "PBM E-score": "inactive: 0.296"}, {"sequence": "GTAGCTCA", "PBM E-score": "inactive: -0.0292"}, {"sequence": "GCCTATCC", "PBM E-score": "inactive: -0.118"}, {"sequence": "CCCTAGAG", "PBM E-score": "inactive: -0.129"}, {"sequence": "ATCAAAGA", "PBM E-score": "inactive: 0.028"}, {"sequence": "GATTCGGC", "PBM E-score": "inactive: -0.0366"}, {"sequence": "ATATTAGG", "PBM E-score": "inactive: 0.176"}, {"sequence": "AGCATGTC", "PBM E-score": "active: 0.376"}, {"sequence": "GGATAACA", "PBM E-score": "inactive: 0.238"}, {"sequence": "ACGTTCAA", "PBM E-score": "≥ 0.0706"}, {"sequence": "ATTGCAAT", "PBM E-score": "inactive: 0.05"}, {"sequence": "ATCGACAA", "PBM E-score": "inactive: 0.206"}, {"sequence": "AGTACCCC", "PBM E-score": "inactive: -0.117"}, {"sequence": "AGGATGGA", "PBM E-score": "inactive: -0.124"}, {"sequence": "CAGTTGTC", "PBM E-score": "inactive: 0.224"}, {"sequence": "GGACTGCA", "PBM E-score": "inactive: -0.083"}, {"sequence": "GTATCAGA", "PBM E-score": "inactive: 0.118"}, {"sequence": "CTTCGAAC", "PBM E-score": "inactive: -0.0385"}, {"sequence": "GCCACTCA", "PBM E-score": "inactive: -0.0797"}, {"sequence": "GACTCACC", "PBM E-score": "inactive: -0.18"}, {"sequence": "TATAGGAA", "PBM E-score": "inactive: 0.109"}, {"sequence": "ACATCAGC", "PBM E-score": "inactive: 0.105"}, {"sequence": "CGGACCCC", "PBM E-score": "inactive: -0.286"}, {"sequence": "GACTAGAA", "PBM E-score": "inactive: 0.0801"}, {"sequence": "CTTGGGTA", "PBM E-score": "inactive: -0.0204"}, {"sequence": "ATCGGCGG", "PBM E-score": "inactive: -0.207"}, {"sequence": "ATCCCATC", "PBM E-score": "inactive: -0.00982"}, {"sequence": "AAACTAAT", "PBM E-score": "inactive: 0.185"}, {"sequence": "ATCTTCGG", "PBM E-score": "inactive: 0.00377"}, {"sequence": "GTTACAAC", "PBM E-score": "inactive: 0.303"}, {"sequence": "ACGTGCCT", "PBM E-score": "inactive: -0.0447"}, {"sequence": "ATTTGGGA", "PBM E-score": "inactive: -0.0177"}, {"sequence": "AATCGAAC", "PBM E-score": "inactive: 0.134"}, {"sequence": "ATGTCAAT", "PBM E-score": "active: 0.359"}, {"sequence": "GAGTGGTA", "PBM E-score": "inactive: 0.018"}, {"sequence": "GTCCCCAC", "PBM E-score": "inactive: -0.132"}, {"sequence": "AGCCTGCG", "PBM E-score": "inactive: -0.158"}, {"sequence": "ACGGGTCA", "PBM E-score": "inactive: -0.115"}, {"sequence": "ATGGAAAA", "PBM E-score": "inactive: 0.127"}, {"sequence": "ATTTGTGA", "PBM E-score": "inactive: 0.074"}, {"sequence": "AAATTGAT", "PBM E-score": "inactive: 0.0364"}, {"sequence": "TCCTGCCA", "PBM E-score": "inactive: -0.0781"}, {"sequence": "GAGCTAAA", "PBM E-score": "inactive: -0.00706"}, {"sequence": "CCTGATCG", "PBM E-score": "inactive: -0.00823"}, {"sequence": "GAAAAGGA", "PBM E-score": "inactive: 0.0322"}, {"sequence": "ATAGCCAG", "PBM E-score": "inactive: -0.0483"}, {"sequence": "AACATCCA", "PBM E-score": "≥ 0.295"}, {"sequence": "ATCAATGC", "PBM E-score": "inactive: 0.0455"}, {"sequence": "GGACAAAC", "PBM E-score": "inactive: 0.143"}, {"sequence": "ACATCAAC", "PBM E-score": "inactive: 0.235"}, {"sequence": "AAACCCAG", "PBM E-score": "inactive: -0.00288"}, {"sequence": "CCACCAAG", "PBM E-score": "inactive: -0.178"}, {"sequence": "GACCAAGC", "PBM E-score": "inactive: -0.122"}, {"sequence": "AATAACAC", "PBM E-score": "inactive: 0.284"}, {"sequence": "GAAGTTAA", "PBM E-score": "inactive: 0.0374"}, {"sequence": "CAAACCAC", "PBM E-score": "inactive: -0.0305"}, {"sequence": "ACATCAAT", "PBM E-score": "active: 0.316"}, {"sequence": "AGGCTGAG", "PBM E-score": "inactive: -0.105"}]}]}
